SMILES strings stand for the structures. In all, about 310,000 compounds went through this assay and about 14,000 (4.5%) showed an effect of 50% or more. The effect is printed as a negative number. The list shows a part of the results.
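Note: peak tail current of the secondary pulse compared with the same well before compound.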

The assay deals with human ether-à-go-go-related gene (hERG) potassium channel (human, UniProt Q12809). Nature of the assay: primary screen, population patch clamp on CHO cells stably expressing hERG.
Sequence of human ether-à-go-go-related gene (hERG) potassium channel (Q12809 whole entry, looked up): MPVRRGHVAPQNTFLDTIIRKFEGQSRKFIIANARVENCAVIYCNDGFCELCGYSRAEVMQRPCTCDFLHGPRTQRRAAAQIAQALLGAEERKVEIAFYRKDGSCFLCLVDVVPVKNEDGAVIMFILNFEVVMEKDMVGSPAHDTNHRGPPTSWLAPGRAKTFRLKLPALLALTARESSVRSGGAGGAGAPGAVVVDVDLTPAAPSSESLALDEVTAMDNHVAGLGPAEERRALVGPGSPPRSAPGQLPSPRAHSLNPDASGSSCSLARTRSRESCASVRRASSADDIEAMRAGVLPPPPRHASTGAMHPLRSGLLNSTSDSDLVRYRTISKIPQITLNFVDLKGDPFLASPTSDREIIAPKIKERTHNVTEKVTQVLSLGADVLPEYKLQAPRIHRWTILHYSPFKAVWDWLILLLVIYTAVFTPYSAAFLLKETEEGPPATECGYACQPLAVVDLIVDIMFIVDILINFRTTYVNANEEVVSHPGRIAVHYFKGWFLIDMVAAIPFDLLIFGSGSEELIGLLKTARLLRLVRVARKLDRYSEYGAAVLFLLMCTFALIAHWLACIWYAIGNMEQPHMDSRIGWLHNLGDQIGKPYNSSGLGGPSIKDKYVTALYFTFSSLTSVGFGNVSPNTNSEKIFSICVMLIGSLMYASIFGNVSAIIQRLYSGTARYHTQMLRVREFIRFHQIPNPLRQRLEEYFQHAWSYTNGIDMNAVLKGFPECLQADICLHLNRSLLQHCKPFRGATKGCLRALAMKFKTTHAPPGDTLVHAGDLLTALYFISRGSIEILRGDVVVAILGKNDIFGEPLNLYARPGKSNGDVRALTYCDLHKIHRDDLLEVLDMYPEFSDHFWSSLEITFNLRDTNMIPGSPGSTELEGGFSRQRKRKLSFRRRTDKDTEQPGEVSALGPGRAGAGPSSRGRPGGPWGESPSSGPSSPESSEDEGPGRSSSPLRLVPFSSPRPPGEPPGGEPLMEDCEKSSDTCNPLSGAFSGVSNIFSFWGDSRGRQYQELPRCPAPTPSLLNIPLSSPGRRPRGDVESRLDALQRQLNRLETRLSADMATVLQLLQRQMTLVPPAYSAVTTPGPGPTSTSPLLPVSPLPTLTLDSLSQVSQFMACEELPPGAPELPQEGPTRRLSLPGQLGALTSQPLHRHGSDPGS
`CC(=O)NS(=O)(=O)c1ccc(NC(=S)NC(=O)c2ccco2)cc1`: the “hERG current change (%, negative = inhibition) at 10uM” value turned out to be 2.54%.
The same measure for `Cc1ccc(/C=N/n2c(C)cc(C)c(C#N)c2=O)o1`: 18.6%.
The result for `Cc1ccc(CNC(=O)CCCn2c(=O)c3ccccc3n(CC(=O)NC3CCCC3)c2=O)cc1` reads -17.7%.
Regarding `Cc1cc(Cl)ccc1NC(=S)NCCC(c1ccccc1)c1ccccc1`, the “hERG current change (%, negative = inhibition) at 10uM” value is listed as 17%.
The same measure for `CCN(CC)S(=O)(=O)c1ccc(NC(=O)C(C)N(c2ccc(OC)cc2)S(C)(=O)=O)cc1` (stereo not drawn): -6.05%; for `O=C(Nc1ccccc1C(=O)N1CCOCC1)C1CCC(=O)N1C1CCCC1` (stereo not drawn): 22.7%; for `COc1ccc(-c2cccc(NC(=O)c3ccco3)c2)nn1`: 1.69%.
Regarding `COCCNC(=O)c1ccccc1NC(=O)Cc1ccccc1`, the “hERG current change (%, negative = inhibition) at 10uM” value is -3.95%.
The same measure for `O=C(Nc1ccc(-c2csc(Nc3ccccc3)n2)cc1)c1cccc(C(F)(F)F)c1`: 20.1%; for `O=S(=O)(c1ccccc1)N1CCN(c2nnc(-c3ccccc3)c3ccccc23)CC1`: -18.2%; for `CC(=O)N1c2ccccc2NC2=C(C(=O)CCC2)C1c1cccnc1` (stereo not drawn): 4.51%.
The same measure for `O=C(NNC(=O)C1CCN(S(=O)(=O)c2ccc(Cl)cc2)CC1)c1ccc(Cl)cc1`: -7.12%.
The result for `Cc1nc(-c2cccnc2)sc1C(=O)Nc1ccc(Cl)cc1` reads -29.2%.
For the compound `CC/C(=C\C(=O)c1ccncc1)Nc1ccc(O)cc1`, the “hERG current change (%, negative = inhibition) at 10uM” value is recorded as -18.3%.
The result for `Cc1cccc(CC(=O)NCC(=O)NCc2cc(=O)n(C)c(=O)n2C)c1` reads 18.2%; that for `Cc1ccc(S(=O)(=O)N2CCN(C)CC2)cc1C(=O)NC1CCCCC1`, -19.5%.
The result for `Cc1cc(C)cc(NC(=O)CSc2nc3[nH]c(=O)cc(O)c3s2)c1` reads 5.94%; that for `CSc1ncc(C(=O)Nc2cccc(Cl)c2C)c(C)n1`, 3.95%.
The same measure for `COC(=O)C1CCN(C(=O)COC(=O)CNC(=O)c2ccc(Cl)cc2Cl)CC1`: -30.4%; for `Cc1ccc(F)c(C2C3C=CCC(c4cccc(-c5ccc(N(C)C)cc5)c4)C3C(=O)N2Cc2ccccc2)c1` (stereo not drawn): 13.4%; for `CCC(=O)OCc1cc2cccc(C)c2[nH]c1=O`: -1.03%.
Take `CC(NS(=O)(=O)c1ccc(Cl)c(Cl)c1)C(=O)OCC(=O)Nc1ccc2c(c1)OCO2` (stereo not drawn): the “hERG current change (%, negative = inhibition) at 10uM” value is -44.1%.
The result for `COC(=O)c1ccc(COc2ccc(C(=O)c3ccccc3)cc2)o1` reads 12.8%; that for `CC1Cc2cc(S(=O)(=O)CCC(=O)NCc3ccco3)ccc2N1C(=O)C1CC1` (stereo not drawn), 12.5%.
The result for `O=C(CCc1ccccc1)Nc1ccccc1[N+](=O)[O-]` reads 19%; that for `COCCn1c(SCC(=O)Nc2ccccc2)nc2c1c(=O)[nH]c(=O)n2C`, -29.2%.
For `C=C(C)Cn1c(CCNC(=O)C(C)C)nc2ccccc21`, the “hERG current change (%, negative = inhibition) at 10uM” value was -2.45%.
On to `CCNC(=O)c1cc2c(=O)n3cccc(C)c3nc2n(Cc2ccc(C)cc2)c1=N`, for which the “hERG current change (%, negative = inhibition) at 10uM” value is recorded as -88%.
On to `O=C(N/N=C/c1ccccc1)C(O)c1ccccc1` (stereo not drawn), for which the “hERG current change (%, negative = inhibition) at 10uM” value was 21%.
Take `CNc1ccccc1NC(=O)CCn1c(=S)oc2ccccc21`: the “hERG current change (%, negative = inhibition) at 10uM” value is 4.1%.
Take `Cc1ccc(NC(=O)C(c2ccccc2)N2CCN(CC(=O)NC3CC3)CC2)cc1` (stereo not drawn): the “hERG current change (%, negative = inhibition) at 10uM” value is on record as -18.1%.
With `COCCN(C(=S)Nc1cc(C)cc(C)c1)C(C)c1ccco1` (stereo not drawn), the “hERG current change (%, negative = inhibition) at 10uM” value is reported as -6.7%.
The result for `CC1CN(c2ncnc3c2oc2ccccc23)CC(C)O1.Cl` (stereo not drawn) reads -2.64%; that for `COc1ccc(N2CCN(c3ccc(N)cc3C#N)CC2)cc1`, 0.876%.
Take `Cc1cccnc1NC(=O)c1ccccc1-c1ccccc1C(=O)Nc1ncccc1C`: the “hERG current change (%, negative = inhibition) at 10uM” value is on record as -31.2%.
As to `O=C(c1ccccc1-c1nc(-c2ccccc2)no1)N1CCCC1`, the “hERG current change (%, negative = inhibition) at 10uM” value is -4.86%.
Consider `O=C(Nc1cc(S(=O)(=O)N2CCOCC2)ccc1N1CCCC1)c1cc(=O)[nH]c2ccccc12`, for which the “hERG current change (%, negative = inhibition) at 10uM” value worked out at 3.35%.
The same measure for `O=S(=O)(NCc1cccnc1)c1ccc(Cl)cc1`: 2.27%; for `COc1ccccc1CN1CCN(C(=O)Cc2ccccc2)CC1`: -20.6%.
The same measure for `O=[N+]([O-])c1ccc(O)c(CSc2nnnn2-c2ccccc2)c1`: 19.8%.
`Cc1ccc(NS(=O)(=O)N2CCOCC2)cc1`: the “hERG current change (%, negative = inhibition) at 10uM” value came out at 25%.
In the case of `COc1cccc(Nc2nc(C)cc(C)c2C#N)c1`, the “hERG current change (%, negative = inhibition) at 10uM” value stood at 9.6%.
The result for `Cc1cccc(-n2c(SCC(=O)Nc3ccc4c(c3)OCO4)nnc2-c2ccoc2C)c1` reads -0.162%; that for `CCOc1cc(C2C(C(C)=O)=C(C)Nc3ncnn32)ccc1O` (stereo not drawn), -0.225%; that for `O=S1(=O)CCC(N=Cc2ccc(-c3ccc(Cl)cc3)o2)C1` (stereo not drawn), 2.43%.
The same measure for `c1coc(-c2nc3c([nH]2)CCc2nonc2-3)c1`: 17.7%.
With `CCc1cc2cccc(C)c2nc1SCC(=O)NNC(=O)c1ccco1`, the “hERG current change (%, negative = inhibition) at 10uM” value is given as -0.00372%.
The result for `C=CCN=C1CC(C)(C)C(C(=O)OC)C(O)=C1C(=O)CCC` (stereo not drawn) reads 11.5%; that for `Cc1ccc(S(=O)(=O)N(Cc2ccc(C(F)(F)F)cc2)C(=O)N2CCN(C)CC2)cc1`, 14.6%.
The same measure for `O=C(CNC(=O)C1CCCCC1)Nc1ccc(F)c(Cl)c1`: 6.31%; for `COc1ccc(C(=O)NCC(c2ccco2)N2CCc3ccccc32)c(OC)c1` (stereo not drawn): -15.2%.
For the compound `NC(=O)C1(NC(=O)[C@@H]2CC3(CC(c4cccc(NC(=O)[C@@H]5CCC(=O)N5)c4)=NO3)CN2C(=O)c2ccccc2)CC1` (stereo partly drawn), the “hERG current change (%, negative = inhibition) at 10uM” value stood at 1.96%.
The result for `COC(=O)C(=Cc1ccccc1[N+](=O)[O-])C(=O)OC` reads 26.5%.
The result for `CCCCc1nnc(NC(=O)C=C(C)C)s1` reads 5.69%; that for `CNCC(O)COc1cccc(OC)c1` (stereo not drawn), 23.7%; that for `O=C(CCN1C(=O)COc2ccccc21)N1CCC2(CC1)OCCO2`, -12.5%.
The result for `COc1cccc(-c2cccc(NC(=O)C3CCN(Cc4nccs4)CC3)c2)c1` reads -37.1%.
In the case of `CCOC(=O)C(C(=O)NCc1ccc(C)cc1)c1ncc(C(F)(F)F)cc1Cl` (stereo not drawn), the “hERG current change (%, negative = inhibition) at 10uM” value is -2.08%.
The same measure for `Fc1ccccc1N1CC(c2ccccc2)C(c2cccs2)=N1` (stereo not drawn): 9.56%; for `Cl.O=S(=O)(NCC(c1ccco1)N1CCCCC1)c1cccc(C(F)(F)F)c1` (stereo not drawn): -57.7%.
For the compound `COc1ccccc1NS(=O)(=O)c1cccc(C(=O)N(C)Cc2cccs2)c1`, the “hERG current change (%, negative = inhibition) at 10uM” value is -27.9%.
Turning to `COc1ccc(NS(=O)(=O)c2ccc(Oc3ncccn3)cc2)cc1`, the “hERG current change (%, negative = inhibition) at 10uM” value amounted to 3.85%.
The result for `O=C(c1cc(-c2ccncc2)nc2ccc(Br)cc12)N1CCN(c2ccccn2)CC1` reads -37.2%; that for `Cc1cc(C)c(S(=O)(=O)NCc2cn3c(C)csc3n2)c(C)c1`, 6.58%; that for `CCN1CCCC1CNS(=O)(=O)c1c(C)cc(C)cc1C.Cl` (stereo not drawn), -25.9%.
The same measure for `COc1cc(OC)c2ccc(=O)oc2c1C(CC(=O)N1CCN(c2ccccc2)CC1)c1ccc2c(c1)OCO2` (stereo not drawn): 2.82%; for `CCC(C)(C(=O)NC1CCCC1)N(Cc1ccco1)C(=O)Cc1cccs1` (stereo not drawn): 1.74%.
The same measure for `COc1ccc(N2CCCn3c2nc2c3c(=O)n(Cc3ccccc3)c(=O)n2C)c(OC)c1`: -15.2%; for `Cc1ccccc1CN1CCC(Oc2ccc(C(=O)NCc3ccccn3)cc2)CC1`: -13.6%; for `O=C(CSc1ncn[nH]1)c1ccc2c(c1)OCO2`: -4.14%.
`Cc1ccnc(NC(=O)C2CCN(S(=O)(=O)c3cccc4nsnc34)CC2)c1`: the “hERG current change (%, negative = inhibition) at 10uM” value is on record as -18.6%.
The result for `Cc1ccc(S(=O)(=O)/N=C(\Sc2ccccc2)c2ccccc2)cc1` reads 14.1%.
The result for `Cn1cnc(S(=O)(=O)Nc2ccc(OC(F)F)cc2)c1` reads 22.7%; that for `COc1ccc(NC(=O)CS(=O)c2ccc(F)cc2)cc1` (stereo not drawn), 16.7%; that for `O=C1C=C(N2CCCCC2)c2ccccc2C1=O`, -9.48%.
Regarding `O=C(O)CSc1cc(NS(=O)(=O)c2ccc(Cl)cc2)c2ccccc2c1O`, the “hERG current change (%, negative = inhibition) at 10uM” value turned out to be 9.2%.
The result for `Cc1cccc(C)c1OCc1cc(C(=O)N(Cc2c(C)nn(C)c2C)C2CC2)no1` reads -31.5%; that for `Cc1ccccc1Cc1c(C)nc2nc(SCC(=O)NCCCN3CCCCC3)nn2c1C`, -11.7%; that for `Cc1ccc(OCCCC(=O)Nc2nccs2)cc1`, 13.4%.
The same measure for `CCCc1cc(=O)oc2c3c(cc(OCC(=O)NCC4CCC(C(=O)O)CC4)c12)OC(C)(C)CC3` (stereo not drawn): 3.64%; for `Cc1ccc(N/C=C/C(=O)c2cccs2)cc1`: 15.1%; for `Cc1ccccc1C(=O)Nc1nnc(S(=O)(=O)N2CCCCCC2)s1`: 3.4%.
The same measure for `O=[N+]([O-])c1cccc(/C=N/N2CCN(c3ccccn3)CC2)c1`: 4.41%; for `CCN1CCN(c2ccc(S(=O)(=O)N3CCOCC3)cc2NC(=O)CCSC)CC1`: -9.37%; for `CC(C)(C)N1C(=O)[C@H]2[C@@H](c3ccc(Br)cc3)N3C(=O)N(c4cccc(Br)c4)C(=O)[C@@]3(Cc3ccccc3)[C@H]2C1=O`: 4.12%.
`COc1cc(OC)cc(C(=O)NNC(=S)Nc2ccccc2OC)c1`: the “hERG current change (%, negative = inhibition) at 10uM” value amounted to 10.8%.
The same measure for `COc1ccc(C2CC(c3ccc(F)cc3)n3nc(NC(=O)c4ccco4)nc3N2)cc1` (stereo not drawn): -60.3%.

The values above are taken from PMC4336329 (PLoS ONE, 2015).
